Data taken from PubChem BioAssay AID1346428 (National Center for Advancing Translational Sciences (NCATS), 2018).
Several values for one entry are separate records, joined by “and”; a condition that tells them apart may be missing. Equal values may be shown once. Screen size: about 48,000 compounds; about 1,200 (2.5%) were called active. Not shown: some 2% with an inconclusive outcome.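 How the source made its calls: active means activation of at least 60% and not above a set upper limit (about 1 call in 100 departs from these limits); inconclusive means activation of 40% to 60%, or above that upper limit; inactive means activation under 40%.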 Some of the results follow. Some structures have more than one record in an assay (separate samples or runs), and their calls can disagree.

target: Probable G-protein coupled receptor 32 (Homo sapiens) (UniProt O75388); assay: qHTS for Agonists of Human Resolvin D1 Receptor DRV1; conditions: CHO-K1 GPR32 beta-arrestin PathHunter luminescence, 90 min; at 76.9 µM; stronger effect = higher value; zero percent set by DMSO-only wells; further: 0% is about no effect
Sequence of UniProt O75388 (O75388 whole entry, looked up): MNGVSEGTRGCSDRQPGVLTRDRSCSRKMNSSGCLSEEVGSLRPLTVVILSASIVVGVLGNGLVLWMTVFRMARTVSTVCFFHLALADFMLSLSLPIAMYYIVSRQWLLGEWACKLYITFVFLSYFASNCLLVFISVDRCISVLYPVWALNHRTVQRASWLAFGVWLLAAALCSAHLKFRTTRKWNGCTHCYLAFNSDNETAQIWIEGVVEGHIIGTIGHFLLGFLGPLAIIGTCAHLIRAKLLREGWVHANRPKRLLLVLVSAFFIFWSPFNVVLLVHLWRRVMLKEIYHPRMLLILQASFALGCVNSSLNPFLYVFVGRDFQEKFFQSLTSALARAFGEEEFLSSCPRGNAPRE
How it was run: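 Cells are plated overnight, treated with compounds in DMSO for 90 minutes at 37 °C, and developed with PathHunter detection reagent for 1 hour before luminescence is read; signal reflects beta-arrestin binding to GPR32 in engineered CHO-K1 cells.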

activation, inactive:
COc1ccc(C)cc1NC(=O)Cn1cc(S(=O)(=O)N2CCC(C)CC2)c2ccccc2c1=O -19.3%
Cc1cc(C)cc(OCC(=O)N2CCC(c3nc4ccccc4o3)CC2)c1 -24%
COC(=O)c1ccccc1NC(=O)C(Cc1ccccc1)N1Cc2ccccc2C1=O (stereo not drawn) -26.6%
CCOc1ccc(NC(=O)c2c(NCc3cc(OC)c(OC)cc3OC)sc3c2CCCC3)cc1 -8.12%
CC(=O)c1cccc(NC(=O)c2ccc3c(c2)N(Cc2ccc(C)cc2)CCS3)c1 -15.3%
COc1ccc(CCNC(=O)Cn2c(=O)nc(-c3ccccc3)c3cc(Cl)ccc32)cc1OC -15.8%
CC(=O)Nc1ccc(S(=O)(=O)NCC2CCC(C(=O)NCCc3ccc(C)cc3)CC2)cc1 (stereo not drawn) -6.41%
COc1ccc(NC(=O)Cn2c(-c3ccc(F)cc3)cc(C(C)=O)c2C)c(OC)c1 -12%
O=S(=O)(c1ccccc1)n1nc(-c2ccc(Cl)cc2)nc1NCc1ccccc1 -14.5%
CCCC1=Nc2cc(C(=O)NC3CCCCC3)ccc2Sc2ccc(C)cc21 -23.8%
Cc1cc(C)c2c(=O)c3c(oc2c1)C(=O)N(CCCOC(C)C)C3c1ccccc1F (stereo not drawn) 10.4%
COCCCNc1nc2c(c(=O)[nH]c(=O)n2C)n1CC(O)COc1ccc(Cl)cc1 (stereo not drawn) -8.15%
COc1cccc(CC(=O)Nc2c(C(=O)N3CCN(c4ccccc4F)CC3)oc3ccccc23)c1 -21.6%
N#C/C(=C\c1ccc(F)cc1)c1nc(-c2ccc(-c3ccccc3)cc2)cs1 5.07%
COc1cccc(CNC(=O)c2ccc3c(c2)sc2nc(-c4cccc(OC)c4)cn23)c1 -8.73%
COc1ccc(N2CC(NC(=O)C(c3ccccc3)c3ccccc3)CC2=O)cc1 (stereo not drawn) -26.3%
CCOC(=O)c1c(S(=O)(=O)N2CCC(C(=O)NCc3ccccc3Cl)CC2)c(C)n(C)c1C -6.23%
CCOC(=O)c1c(NC(=O)C(C)Sc2cn(CCNC(=O)c3ccc(OCC)cc3)c3ccccc23)sc2c1CCC2 (stereo not drawn) 6.76%
Cc1cccc(N2CCN(C(=O)c3cnn(-c4ccccc4)c3C3CCN(C(=O)OC(C)(C)C)CC3)CC2)c1C -18.3%
CCc1nc2nc(C)cc(Nc3cc(C)ccc3C)n2n1 9.75%
CCOC(=O)c1ccc(NC(=O)Cn2nc(C)c3nn(-c4ccc(Cl)cc4)c(C)c3c2=O)cc1 -15.6%
Clc1ccc(CSc2nncn3c2cc2occc23)cc1 -8.26%
Cc1ccc(Nc2ncnc3c2nc2n3CCCC2)cc1F -8.5%
CC(c1cc2ccccc2s1)N(O)C(N)=O (stereo not drawn) 8.71%
Cc1nc2nc[nH]n2c(=O)c1NS(=O)(=O)c1ccc(Br)cc1 6.46%
COc1ccccc1CNC(=O)C1CCN(S(=O)(=O)Cc2ccccc2)CC1 11.2%
CC1=C(c2ccc(Cl)cc2)S(=O)(=O)N=C1N1CCN(c2cc(C)ccc2C)CC1 -14.2%
COc1cccc(Cn2c(=O)n(Cc3ccccc3)c(=O)c3c2c2cc(OC)ccc2n3C)c1 -9.71%
CCCN1CCCc2cc(CN(CCCN3CCOCC3)C(=O)Nc3ccc(Cl)c(Cl)c3)ccc21 0.0212%
COc1ccc(CNC(=O)C(=O)NCC(c2cccnc2)N2CCN(c3ccccc3)CC2)cc1 (stereo not drawn) -1.66%
Cc1cccc(N(C)S(=O)(=O)c2ccc3c(c2)NC(=O)CC(=O)N3)c1 7.82%
Cc1cc(C)cc(-n2c(SCC(=O)Nc3ccc4c(c3)OCO4)nc3c([nH]c4ccccc43)c2=O)c1 3.08%
COc1ccc2sc(N(Cc3cccnc3)C(=O)CCc3ccccc3)nc2c1 -27%
CCOc1c(N2CCOCC2)cnn(C)c1=O -16.1%
CCOc1ccc(Nc2nc3c(S(=O)(=O)c4ccc(CC)cc4)nnn3c3ccc(Cl)cc23)cc1 2.21%
CC1CCN(S(=O)(=O)c2ccc3c(ccc(=O)n3CC(=O)NCc3ccc(Cl)cc3)c2)CC1 5.91%
COc1ccc(-c2nc(Cn3c(=O)cc(-c4ccccc4)c4c(C)nn(C)c43)c(C)o2)cc1OC -7.21%
CC(=O)c1cccc(NC(=O)CCc2nc3cccnc3n2Cc2cccs2)c1 -4.29%
CC(=O)N1CCc2cc(Br)cc(S(=O)(=O)NCCc3ccc(Cl)cc3)c21 14.6%
CCOC(=O)CSc1nc(-c2ccc(F)cc2)cc(C(F)(F)F)c1C#N 33.5%
O=C(c1cccn1-c1nnc(N2CCCCC2)s1)N1CCN(c2ccc(Cl)cc2)CC1 -0.232%
COc1ccc(CCNc2nc3ccc(C)cc3n3cnnc23)cc1OC -4.83%
Cc1cc(C)cc(NC(=O)C(CC(C)C)NC(=O)C2CCCCC2)c1 (stereo not drawn) 14.3%
CN(C)c1ccc(C(=O)Nc2c(C(=O)NC(C)(C)C)oc3ccccc23)cc1 -9.13%
CC(C)Oc1ccc(CNC(=O)c2ccc3nc(C(C)C)oc3c2)cc1 -12.2%
CCNc1nc(NC(C)(C)C)nc(Oc2ccc(=O)n(-c3ccccc3)n2)n1 32%
CCn1c(C(=O)N2CCC(C(=O)N3CCN(c4ccc(OC)cc4)CC3)CC2)cc2sccc21 14.9%
COc1ccc(S(=O)(=O)N(CC(=O)Nc2cc(C)cc(C)c2)c2ccc(Cl)cc2)cc1 -1.2%
COc1ccc(Cl)cc1N=C1NC(=O)CC(C(=O)Nc2ccccc2C(F)(F)F)S1 (stereo not drawn) 13.3%
CCc1nn2c(=O)cc(COC(=O)c3ccc4c(c3)OCO4)nc2s1 29.4%
O=C(NCCn1cc(SCc2ccccc2)c2ccccc21)c1cccs1 20.1%
CCCc1cc(=O)[nH]c(Nc2ccccc2O)n1 6.57%
COc1ccc(-c2nc3scc(CCNS(=O)(=O)c4c(C)cc(C)cc4C)n3n2)cc1OC -11.2%
NC(=O)c1ncn([C@@H]2O[C@H](CO)[C@@H](O)[C@H]2O)c1N 7.7%
CC(=O)c1c(C)n(-c2ccc(Cl)cc2)c2ccc(OC(=O)COc3ccccc3)cc12 3.73%
Cc1cc(C)cc(C(=O)Nc2cccc(-c3nc4ncccc4o3)c2C)c1 -4.56%
COc1ccccc1CNC(=O)CCCCn1c(=O)c2ccccc2n(Cc2ccccc2C)c1=O -7.22%
CC(C)(C)C1CCc2c(sc(NC(=O)c3ccccc3F)c2C(=O)NCc2ccco2)C1 (stereo not drawn) 11.2%
COc1ccc(C2=NS(=O)(=O)N(C)C(C(=O)Nc3ccc(OC(F)(F)F)cc3)=C2)cc1 -21.5%
c1ccc(N2CCN(Cc3nnc(-c4ccc5c(c4)OCO5)o3)CC2)cc1 0.0837%
CCOC(=O)c1cc2c(=O)n3ccccc3nc2n(CCOC)c1=NC(=O)c1cc2ccccc2o1 -14.8%
Cc1nn(-c2ccc(N3CCCC3)nn2)c(C)c1CCC(=O)NCc1ccccc1 -10.7%
CN(Cc1ccccc1)S(=O)(=O)c1nnc(NC(=O)c2ccccc2Cl)s1 16%
Cc1cccc(N2CCN(C(=O)c3cnc4c(C)cccn4c3=O)CC2C)c1 (stereo not drawn) 27.8%
O=C(NCc1ccccc1Cl)C1CCCN(C(=O)c2cnn(-c3ccc(F)cc3)c2-n2cccc2)C1 (stereo not drawn) 43.6%
CCOc1ccc(NC(=O)CSc2nc3c([nH]c4ccccc43)c(=O)n2-c2cc(C)cc(C)c2)cc1 3.51%
O=C(COc1cccc(Cl)c1)N1CCC(c2nc3ccccc3o2)CC1 0.0308%
CC(C)c1ccc(NC(=O)N2CCN(c3ccc(Cl)c(Cl)c3)CC2)cc1 -14.1%
Cc1nc2c(-c3ccccc3)c(C)nn2c(C)c1CCC(=O)NCCc1ccccc1 7.22%
O=C(NC1CC(=O)N(c2ccc(Cl)cc2)C1)C1CCCC1 (stereo not drawn) -7.81%
Cc1ccc(N2CCN(C(=O)c3c(C)oc4ncnc(N5CCCCC5)c34)CC2)c(C)c1 9.13%
CCOC(=O)c1c(C)oc2c1cc(NS(=O)(=O)c1ccc(C)cc1)c1ccccc12 21.5%
NCCc1ccn[nH]1 -14.6%
CCC(C)NC(=O)c1ccc2c(c1)nc1n2CCCCC1 (stereo not drawn) -13%
COc1ccc(NC(=O)CSc2nc3c(oc4ccccc43)c(=O)n2-c2ccccc2)cc1OC -36.1%
CC(C)(C)OC(=O)N1CCC(c2c(C(=O)NCc3ccccc3)cnn2-c2ccc(F)cc2)CC1 -9.56%
CCC(=O)N1c2ccccc2C(C)(c2ccccc2)CC1(C)C (stereo not drawn) -6.46%
CN1CCN(C(=O)c2ccc3c(c2)N(Cc2ccc(F)cc2)C(=O)c2ccccc2S3=O)CC1 (stereo not drawn) -22.3%
CCOc1ccccc1NC(=O)c1cc(S(=O)(=O)N2CCOCC2)cn1C -13.1%

activation, 84.2% (active) and 26.9% (inactive):
CC1=C(/C=C/C(C)=C/C=C/C(C)=C/C(=O)Nc2ccc(O)cc2)C(C)(C)CCC1

activation, active:
CCC(=O)N1c2ccccc2CC1C(=O)NCCN1CCN(c2cc(Cl)ccc2C)CC1 (stereo not drawn) 68.5%
Cc1cc2[nH]c(=O)c(=O)[nH]c2cc1S(=O)(=O)N1CCN(c2ccccc2F)CC1 70.1%
CCc1ccccc1N1CC(c2nc3ccccc3n2CCOc2ccc(Cl)c(C)c2)CC1=O (stereo not drawn) 77.1%
